# According to PMC4336329 (PLoS ONE, 2015):
# The whole screen tested about 310,000 compounds, of which about 14,000 (4.5%) showed an effect of 50% or more. Effects have a minus sign here. Some of the results follow.
# Target: human ether-à-go-go-related gene (hERG) potassium channel (human, UniProt Q12809)
# Experiment: primary screen, population patch clamp on CHO cells stably expressing hERG
# 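Further: peak tail current of the secondary pulse compared with the same well before compound.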
# Chain of human ether-à-go-go-related gene (hERG) potassium channel (Q12809 whole entry, looked up): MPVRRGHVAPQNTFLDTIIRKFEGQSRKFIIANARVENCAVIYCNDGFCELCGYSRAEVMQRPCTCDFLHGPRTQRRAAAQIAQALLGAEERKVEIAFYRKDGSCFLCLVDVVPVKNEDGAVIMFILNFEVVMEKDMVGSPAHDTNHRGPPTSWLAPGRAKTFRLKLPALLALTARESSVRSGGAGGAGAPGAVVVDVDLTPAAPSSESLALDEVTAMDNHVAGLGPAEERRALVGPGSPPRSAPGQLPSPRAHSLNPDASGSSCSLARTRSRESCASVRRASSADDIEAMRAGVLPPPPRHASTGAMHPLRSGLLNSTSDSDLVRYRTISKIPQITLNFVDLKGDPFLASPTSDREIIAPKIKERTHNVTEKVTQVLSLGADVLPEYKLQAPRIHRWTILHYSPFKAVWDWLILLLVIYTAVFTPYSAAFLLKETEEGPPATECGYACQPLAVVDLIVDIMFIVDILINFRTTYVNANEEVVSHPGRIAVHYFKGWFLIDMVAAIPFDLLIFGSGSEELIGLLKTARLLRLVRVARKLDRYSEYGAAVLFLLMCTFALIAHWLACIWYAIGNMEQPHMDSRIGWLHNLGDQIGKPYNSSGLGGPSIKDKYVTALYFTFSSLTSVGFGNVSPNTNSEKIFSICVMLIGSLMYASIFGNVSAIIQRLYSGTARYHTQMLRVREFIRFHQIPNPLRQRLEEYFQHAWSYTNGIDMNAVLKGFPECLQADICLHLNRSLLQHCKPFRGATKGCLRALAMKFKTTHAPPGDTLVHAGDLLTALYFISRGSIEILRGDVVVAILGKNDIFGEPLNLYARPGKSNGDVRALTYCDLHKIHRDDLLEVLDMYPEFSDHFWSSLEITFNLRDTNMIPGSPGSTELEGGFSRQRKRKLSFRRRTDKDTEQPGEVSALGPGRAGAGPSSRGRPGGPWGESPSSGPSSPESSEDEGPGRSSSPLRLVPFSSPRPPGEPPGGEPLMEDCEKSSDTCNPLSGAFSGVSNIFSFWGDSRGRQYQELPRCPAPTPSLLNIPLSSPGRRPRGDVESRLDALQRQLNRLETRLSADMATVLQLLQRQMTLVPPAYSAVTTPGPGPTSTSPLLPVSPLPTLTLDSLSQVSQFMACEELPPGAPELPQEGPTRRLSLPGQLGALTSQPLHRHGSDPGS
row,Compound,"hERG current change (%, negative = inhibition) at 10uM [%]"
1,Fc1ccc(Cn2cnc3ccccc32)cc1,-0.316
2,CN(Cc1cc2ccccc2[nH]c1=O)S(=O)(=O)c1ccccc1,8.3
3,O=c1[nH]n(CCO)c(=O)c2cccnc12,7.19
4,O=C(CC(=O)c1ccccc1)Nc1cccnc1Cl,-4.72
5,O=C(/C(C=Nc1cc2c(oc1=O)CCCC2=O)=C(\O)c1ccccc1)c1ccccc1,19.6
6,COc1ccc(C(CC(=O)NCc2ccco2)c2ccc(F)cc2)cc1 (centres unmarked),-22.4
7,O=c1c(-c2nc3ccccc3s2)cccn1Cc1ccccc1,-0.382
8,CCc1ccccc1NC(=O)N1C2CCCC1CC(NC(=O)C(C)(C)C)C2 (centres unmarked),5.8
9,Cc1cc(-n2nc(C)cc2C)n2ncc(-c3ccccc3)c2n1,16.2
10,CCCCN(CCCNc1ncnc2nc[nH]c12)c1ccccc1,-7.39
11,Cc1ccc(SCC(=O)NCCc2ccccc2)cc1,15.3
12,Cc1cc(C)c2oc(C(=O)N(Cc3ccccc3)c3ccccn3)cc(=O)c2c1,-10.1
13,CN(CP(=O)(O)C(O)c1ccccc1)S(C)(=O)=O (centres unmarked),2.76
14,CCN(CC(=O)NC(=O)NC1CCCCC1)Cc1nc2ccccc2c(=O)[nH]1,-8.1
15,COc1ccc(C(=O)NC2CCN(C(=S)Nc3ccc(C)c(C)c3)CC2)cc1,23.5
16,COc1ccc(/C=C(\NC(=O)c2ccccc2)C(=O)N/N=C/c2ccncc2)cc1,7.25
17,CCN(CC)c1ccc(/C=N/N2CCN(Cc3ccccc3Cl)CC2)cc1,16.9
18,Cc1cc(S(=O)(=O)NCCCn2ccnc2)c(C)cc1Cl,-20.1
19,Cc1cccc(C(=O)OCC(=O)NCC(C)C)c1O,21.1
20,COC(=O)C1=C(C(=O)OC)[C@@H]2N(C)c3ccccc3[C@@]23C[C@@H](C(=O)OC)N(C(=O)c2ccco2)C3=N1,-13.9
21,COC(=O)[C@@H](NCc1cccc(CN[C@H](C(=O)OC)c2ccccc2)c1)c1ccccc1,-9.1
22,NCCNC[C@@H]1COC2(CCCCCCCCCCC2)O1,5.63
23,CCN(C(=O)c1ccc(NC(=O)Cc2ccccc2)cc1)c1ccccc1,-28.6

row,Compound,"hERG current change (%, negative = inhibition) at 10uM [%]"
1,COc1cccc(-n2nnnc2SCC(=O)NCCc2ccc(OC)c(OC)c2)c1,1.06
2,Cc1ccc(CO/N=C\Cc2snc(Sc3ncc(C(F)(F)F)cc3Cl)c2C#N)cc1,11.3
3,COC(=O)Cn1cnc2scc(-c3ccc(C)c(C)c3)c2c1=O,9.7
4,CCc1cc2c(SCC(=O)c3ccccc3)ncnc2s1,7.93
5,C=CCn1c(SCc2c(C)noc2C)nc2cc(C(=O)O)ccc2c1=O,-9.92
6,O=C1CCC(C(=O)Nc2cccc(Br)c2)N1 (centres unmarked),7.12
7,Cc1ccc2c(c1)C(O)(CC(=O)c1ccc(C)s1)C(=O)N2 (centres unmarked),21.4
8,CS(=O)(=O)N1CCN(CCN2C(=O)c3cccc4cccc(c34)C2=O)CC1,7.17
9,COc1ccc(C2(C(=O)N3CCCC3)CCOCC2)cc1OC,4
10,CC(C)CNS(=O)(=O)c1ccc(CCC(=O)N2CCN(Cc3ccc4c(c3)OCO4)CC2)cc1,-54.4
11,COc1ccccc1S(=O)(=O)Cc1ccc(C(=O)NCC2CCCO2)o1 (centres unmarked),10
12,COc1ccc(OCCN2CCN(S(=O)(=O)c3ccccc3C(F)(F)F)CC2)cc1,-12.6
13,COc1ccc(CCNC(=O)CCS(=O)(=O)Cc2ccccc2C)cc1OC,9.44
14,CON(C)S(=O)(=O)c1cccc(C(=O)Oc2ccc(N(C)S(=O)(=O)c3ccccc3)cc2)c1,21.3
15,Cc1ccc(C(=O)O)cc1NCc1ccncc1,18.7
16,CN1CCN(C(=O)c2ccc(-n3cccc3)cc2)CC1,-20.3
17,O=C1/C(=C/c2cccnc2)SC(=S)N1NS(=O)(=O)c1ccccc1,15
18,CNC(=O)CSc1nnc(-c2ccco2)n1-c1cccc(OC)c1,-0.723
19,CCOC(=O)CCn1c(=S)n(CCC(=O)OCC)c2ccccc21,-40.6
20,Cc1ccc(S(=O)(=O)N2CCCCC2)cc1NC(=O)CSCC(=O)O,18.3
21,NC(=S)Nc1c(Cl)cccc1Cl,14.1
22,COc1ccc(C(=O)NC2CCCCC2)cc1S(=O)(=O)N1CCCC1,-18.1
23,COc1cc(OC)cc(C(=O)Nc2nc(CC(=O)NCc3ccccc3OC)cs2)c1,-8.49

row,Compound,"hERG current change (%, negative = inhibition) at 10uM [%]"
1,CC(O)c1cccc(NC(=O)C2CCCCC2)c1 (centres unmarked),31.1
2,COc1ccc(CCNC(=O)c2cc3c(=O)n4ccccc4nc3n(C3CCCCC3)c2=N)cc1OC,-76.6
3,Cc1ccc(NC(=O)CN2C(=O)COc3ccc(S(=O)(=O)N4CCCC4)cc32)cc1C,3.44
4,CCOc1ccc2nc3c(cc2c1)CN(CCOC)C(=NC)S3.Cl,11.2
5,CC1C=CCC2C(=O)N(c3cccc(C(=O)N4CCN(c5ccc(F)cc5)CC4)c3)C(=O)C12 (centres unmarked),-20.1
6,Cc1ccc(C(=O)NNS(=O)(=O)c2ccc(F)cc2)cc1,7.52
7,Cc1ccsc1C(=O)NCCc1c[nH]c2ccccc12,7.32
8,CSc1ccccc1C(=O)Nc1cccc(N(C)S(C)(=O)=O)c1,-7.06
9,CC(C)(C)OC(=O)CN1C(=O)NC2(CCCc3ccccc32)C1=O (centres unmarked),8.73
10,CC(C)C(=O)Nc1ccc(-c2nc3cccnc3o2)cc1,9.76
11,Cc1cc(C)cc(N(CCC(=O)O)S(=O)(=O)c2ccc(Cl)cc2)c1,-17.4
12,COc1ccccc1C(c1nnnn1C(C)(C)C)N1CCCCCC1 (centres unmarked),-20.9
13,O=C(O)CC(Cc1ccc(Cl)cc1)C(=O)Nc1ccccc1 (centres unmarked),11.8
14,O=C(NCCCCc1ccccc1)c1cccc(Br)c1,-3.79
15,CCN(C(=O)COC(=O)c1cc(-c2ccccc2)nc2ccc(Br)cc12)C1CCS(=O)(=O)C1 (centres unmarked),10.5
16,O=C(CSc1nc(O)c(Cc2ccccc2)c(=O)[nH]1)Nc1nnc(SCc2ccccc2)s1,19.6
17,OCCSc1nncn1/N=C/c1c[nH]c2ccccc12,2.28
18,C[C@]12CCC(=O)CC1=CCC1C3CC=C(C#N)[C@@]3(C)CC[C@@]12O (some centres unmarked),17.4
19,O=C(O)C1Sc2[nH]c(=O)sc2C2c3ccc(O)cc3OC(=O)C12 (centres unmarked),22.8
20,CCN(CC)CC(O)Cn1c(-c2cccc(Cl)c2)nc2cc(C)c(C)cc21 (centres unmarked),-62.8
21,Cc1ccc(/C=C(/NC(=O)c2ccccc2)C(=O)NCCc2c[nH]c3ccccc23)o1,-21.3
22,COc1ccc(O)c(C2NC(CC(C)C)(C(=O)O)C3C(=O)N(Cc4ccccc4)C(=O)C23)c1 (centres unmarked),0.866
23,Cc1cc(NC(=O)NC(C(F)(F)F)C(F)(F)F)no1,14.1

row,Compound,"hERG current change (%, negative = inhibition) at 10uM [%]"
1,O=C(Nc1cccc(Cl)c1)C1COc2ccccc2O1 (centres unmarked),11.3
2,Cc1nc2cc(Cl)ccc2n1CCO,0.979
3,COc1ccc2ccc(O)c(CN3CCN(S(=O)(=O)c4cccc(C(F)(F)F)c4)CC3)c2c1,0.947
4,O=C(NNC(=S)NC(=O)c1ccco1)c1ccc(F)cc1,12.1
5,Cc1ccc(-n2cc(CNC(C)c3cnn(C)c3C)c(-c3ccc(F)cc3)n2)cc1 (centres unmarked),-30.7
6,Cc1ccccc1NC(=O)C[n+]1cc(-c2ccccc2)n2c1CCC2.[Cl-],12.9
7,CCCCC(=O)N/N=C/c1sccc1C,13.3
8,CCCCN(CCCC)CCCNC(=O)CC1Oc2ccc(C)cc2NC1=O (centres unmarked),-49.5
9,O=C(O)c1ccc2c(c1)ncn2C1CCCCCC1,12.6
10,O=C(O)c1cccc(NC(=O)N2C[C@H]3C[C@@H](C2)c2cccc(=O)n2C3)c1,8.44
11,COc1ccccc1N1CC(C(=O)Nc2nnc(SCc3cccnc3)s2)CC1=O (centres unmarked),10.8
12,COC(=O)c1ccc(C(C(=O)NC2CCCCC2)N(C(=O)Cc2cccs2)C2CC2)cc1 (centres unmarked),-4.11
13,CCOc1ccc(NC(=O)c2cc(Cl)nc3ccccc23)cc1,7.45
14,CC(C)(C)c1ccc(NC(=O)N2CCCN(c3c(Cl)cncc3Cl)CC2)cc1,2
15,CC(C)(C)C(=O)C(CO)(Oc1ccc(Cl)cc1)n1cncn1 (centres unmarked),9.33
16,O=C(C1=C[C@@H](c2csc3ccccc23)C[C@@H](OCc2ccc(CO)cc2)O1)N1CCOCC1,-27.5
17,COCCNC(=O)c1cc2sc3ccccc3c2s1,-8.28
18,O=C(O)CCc1ccc(-c2cccs2)n1NC(=O)c1ccccc1Br,-7.06
19,COc1ccc(-c2cc(C(=O)NCCCN3CCCC3=O)c3ccccc3n2)cc1,-12
20,Cc1n[nH]c(=O)n1-c1cccc(C(F)(F)F)c1,17.9
